# Experimental data reported in the supplement of paper PMC8728848.
# The other results are listed elsewhere or left out.
# B1: FimD (Bordetella pertussis) (protein)
# chain: MPARVISFCGAALAVWAGLAVQPAMAVDPPVDCGRALGLHFWSSASLISDQTPDGTLIGKPVVGRSLLSKSCKVPDDIKEDLSDNHDGEPVDIVLELGSNYKIRPQSYGHPGIVVDLPFGSTEETGIAIYIDFGSSPMQKVGERQWLYPQKGEVLFDVLTINGDNAEVRYQAIKVGPLKRPRKLVLSQFPNLFTYKWVFMRGTSQERVLAQGTIDTDVATSTIDLKTCRYTSQTVSLPIIQRSALTGVGTTLGMTDFQMPFWCYGWPKVSVYMSATKTQTGVDGVALPATGQAAGMASGVGVQLINGKTQQPVKLGLQGKIALPEAQQTESATFSLPMKAQYYQTSTSTSAGKLSVTYAVTLNYD
# Assays:
# Test in all cases: glycan array binding signal (z-score within array); higher = stronger binding
# Details in all cases: glycan notation: IUPAC condensed, linker removed
# [1] = molecular target: GalNAc(b1-4)GlcNAc(b1-2)Man
# Summary of the method: (§1)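 The Consortium for Functional Glycomics database supplied 3228 glycan arrays, of which those lacking an available protein sequence were dropped. The binding signal, a within-array Z-score, was averaged across arrays of the same protein sequence and across linkers. Negative scores can be read as non-binding.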
# [2] = molecular target: GalNAc(b1-4)GlcNAc(b1-2)Man(a1-3)[GalNAc(b1-4)GlcNAc(b1-2)Man(a1-6)]Man(b1-4)GlcNAc(b1-4)GlcNAc
# Summary of the method: as §1
# [3] = molecular target: GalNAc(b1-4)GlcNAc(b1-3)GalNAc(b1-4)GlcNAc
# Summary of the method: as §1
# [4] = molecular target: GalNAc(b1-4)GlcNAc6S
# Summary of the method: as §1
# [5] = molecular target: GalNAc(b1-6)GalNAc
# Summary of the method: as §1
# [6] = molecular target: GalNAc3S(b1-4)GlcNAc
# Summary of the method: as §1
# [7] = molecular target: GalNAc3S(b1-4)GlcNAc3S
# Summary of the method: as §1
# [8] = molecular target: GalNAc3S(b1-4)[Fuc(a1-3)]GlcNAc
# Summary of the method: as §1
# [9] = molecular target: GalNAc4S6S(b1-4)GlcNAc
# Summary of the method: as §1
# [10] = molecular target: GalNAc6S(b1-4)GlcNAc
# Summary of the method: as §1
# [11] = molecular target: Glc(a1-4)Glc
# Summary of the method: as §1
# [12] = molecular target: Glc(a1-4)Glc(a1-4)Glc(a1-4)Glc
# Summary of the method: as §1
# [13] = molecular target: Glc(a1-6)Glc(a1-6)Glc
# Summary of the method: as §1
# [14] = molecular target: Glc(a1-6)Glc(a1-6)Glc(a1-6)Glc
# Summary of the method: as §1
# [15] = molecular target: Glc(b1-4)Glc
# Summary of the method: as §1
# [16] = molecular target: Glc(b1-6)Glc
# Summary of the method: as §1
# [17] = molecular target: GlcA(b1-3)Gal
# Summary of the method: as §1
# [18] = molecular target: GlcA(b1-3)GlcNAc
# Summary of the method: as §1
# [19] = molecular target: GlcA(b1-6)Gal
# Summary of the method: as §1
# [20] = molecular target: GlcA3S(b1-3)Gal(b1-4)GlcNAc(b1-2)Man
# Summary of the method: as §1
# [21] = molecular target: GlcA3S(b1-3)Gal(b1-4)GlcNAc(b1-3)Gal(b1-4)Glc
# Summary of the method: as §1
# [22] = molecular target: GlcNAc(a1-3)Gal(b1-4)GlcNAc
# Summary of the method: as §1
# [23] = molecular target: GlcNAc(a1-4)Gal(b1-3)GlcNAc
# Summary of the method: as §1
# [24] = molecular target: GlcNAc(a1-4)Gal(b1-4)GalNAc
# Summary of the method: as §1
# [25] = molecular target: GlcNAc(a1-4)Gal(b1-4)GlcNAc
# Summary of the method: as §1
# [26] = molecular target: GlcNAc(a1-4)Gal(b1-4)GlcNAc(b1-3)Gal(b1-4)Glc
# Summary of the method: as §1
# [27] = molecular target: GlcNAc(a1-4)Gal(b1-4)GlcNAc(b1-3)Gal(b1-4)GlcNAc
# Summary of the method: as §1
# [28] = molecular target: GlcNAc(a1-4)Gal(b1-4)GlcNAc(b1-3)Gal(b1-4)GlcNAc(b1-3)Gal(b1-4)GlcNAc
# Summary of the method: as §1
# [29] = molecular target: GlcNAc(a1-4)Gal(b1-4)GlcNAc(b1-3)Gal(b1-4)[Fuc(a1-3)]GlcNAc(b1-3)Gal(b1-4)[Fuc(a1-3)]GlcNAc
# Summary of the method: as §1
# [30] = molecular target: GlcNAc(a1-6)Gal(b1-4)GlcNAc
# Summary of the method: as §1
# [31] = molecular target: GlcNAc(b1-2)Gal(b1-3)GalNAc
# Summary of the method: as §1
# [32] = molecular target: GlcNAc(b1-2)Man(a1-3)[GlcNAc(b1-2)Man(a1-6)]Man(b1-4)GlcNAc(b1-4)GlcNAc
# Summary of the method: as §1
# [33] = molecular target: GlcNAc(b1-2)Man(a1-3)[GlcNAc(b1-2)Man(a1-6)]Man(b1-4)GlcNAc(b1-4)[Fuc(a1-6)]GlcNAc
# Summary of the method: as §1
# [34] = molecular target: GlcNAc(b1-2)Man(a1-3)[GlcNAc(b1-4)][GlcNAc(b1-2)Man(a1-6)]Man(b1-4)GlcNAc(b1-4)GlcNAc
# Summary of the method: as §1
# [35] = molecular target: GlcNAc(b1-2)Man(a1-3)[GlcNAc(b1-4)][GlcNAc(b1-2)Man(a1-6)]Man(b1-4)GlcNAc(b1-4)[Fuc(a1-6)]GlcNAc
# Summary of the method: as §1
# [36] = molecular target: GlcNAc(b1-2)[GlcNAc(b1-4)]Man(a1-3)[GlcNAc(b1-2)Man(a1-6)]Man(b1-4)GlcNAc(b1-4)GlcNAc
# Summary of the method: as §1
# [37] = molecular target: GlcNAc(b1-2)[GlcNAc(b1-4)]Man(a1-3)[GlcNAc(b1-4)][GlcNAc(b1-2)Man(a1-6)]Man(b1-4)GlcNAc(b1-4)GlcNAc
# Summary of the method: as §1
# [38] = molecular target: GlcNAc(b1-2)[GlcNAc(b1-4)]Man(a1-3)[GlcNAc(b1-4)][GlcNAc(b1-2)[GlcNAc(b1-6)]Man(a1-6)]Man(b1-4)GlcNAc(b1-4)GlcNAc
# Summary of the method: as §1
# [39] = molecular target: GlcNAc(b1-2)[GlcNAc(b1-4)]Man(a1-3)[GlcNAc(b1-4)][GlcNAc(b1-2)[GlcNAc(b1-6)]Man(a1-6)]Man(b1-4)GlcNAc(b1-4)[Fuc(a1-6)]GlcNAc
# Summary of the method: as §1
# [40] = molecular target: GlcNAc(b1-2)[GlcNAc(b1-6)]Man(a1-6)[GlcNAc(b1-2)Man(a1-3)]Man(b1-4)GlcNAc(b1-4)GlcNAc
# Summary of the method: as §1
# [41] = molecular target: GlcNAc(b1-2)[GlcNAc(b1-6)]Man(a1-6)[GlcNAc(b1-2)Man(a1-3)]Man(b1-4)GlcNAc(b1-4)[Fuc(a1-6)]GlcNAc
# Summary of the method: as §1
# [42] = molecular target: GlcNAc(b1-2)[GlcNAc(b1-6)]Man(a1-6)[GlcNAc(b1-4)][GlcNAc(b1-2)Man(a1-3)]Man(b1-4)GlcNAc(b1-4)GlcNAc
# Summary of the method: as §1
# [43] = molecular target: GlcNAc(b1-3)Fuc
# Summary of the method: as §1
# [44] = molecular target: GlcNAc(b1-3)Gal
# Summary of the method: as §1
# [45] = molecular target: GlcNAc(b1-3)Gal(b1-3)GalNAc
# Summary of the method: as §1
binder,measurement,setting,value
B1,glycan array binding signal (z-score),[1],-0.434
same,glycan array binding signal (z-score),[2],0.05
same,glycan array binding signal (z-score),[3],-0.036
same,glycan array binding signal (z-score),[4],-0.109
same,glycan array binding signal (z-score),[5],-0.278
same,glycan array binding signal (z-score),[6],0.047
same,glycan array binding signal (z-score),[7],-0.17
same,glycan array binding signal (z-score),[8],-0.119
same,glycan array binding signal (z-score),[9],-0.402
same,glycan array binding signal (z-score),[10],0.257
same,glycan array binding signal (z-score),[11],-0.548
same,glycan array binding signal (z-score),[12],-0.006
same,glycan array binding signal (z-score),[13],-0.314
same,glycan array binding signal (z-score),[14],-0.049
same,glycan array binding signal (z-score),[15],0.068
same,glycan array binding signal (z-score),[16],-0.384
same,glycan array binding signal (z-score),[17],-0.2
same,glycan array binding signal (z-score),[18],0.053
same,glycan array binding signal (z-score),[19],0.112
same,glycan array binding signal (z-score),[20],-0.377
same,glycan array binding signal (z-score),[21],-0.183
same,glycan array binding signal (z-score),[22],-0.414
same,glycan array binding signal (z-score),[23],-0.038
same,glycan array binding signal (z-score),[24],-0.046
same,glycan array binding signal (z-score),[25],0.198
same,glycan array binding signal (z-score),[26],1.99
same,glycan array binding signal (z-score),[27],0.499
same,glycan array binding signal (z-score),[28],-0.238
same,glycan array binding signal (z-score),[29],0.379
same,glycan array binding signal (z-score),[30],-0.109
same,glycan array binding signal (z-score),[31],0.056
same,glycan array binding signal (z-score),[32],0.004
same,glycan array binding signal (z-score),[33],1.06
same,glycan array binding signal (z-score),[34],-0.449
same,glycan array binding signal (z-score),[35],-0.367
same,glycan array binding signal (z-score),[36],-0.484
same,glycan array binding signal (z-score),[37],-0.493
same,glycan array binding signal (z-score),[38],-0.317
same,glycan array binding signal (z-score),[39],-0.389
same,glycan array binding signal (z-score),[40],-0.276
same,glycan array binding signal (z-score),[41],-0.061
same,glycan array binding signal (z-score),[42],-0.119
same,glycan array binding signal (z-score),[43],-0.267
same,glycan array binding signal (z-score),[44],-0.154
same,glycan array binding signal (z-score),[45],-0.223
